Hit rate of the full screen: of about 310,000 compounds, about 14,000 (4.5%) showed an effect of 50% or more. Effects have a minus sign here. The list shows a part of the results.
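Also: peak tail current of the secondary pulse compared with the same well before compound.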

The target in the assay is human ether-à-go-go-related gene (hERG) potassium channel (human, UniProt Q12809). Description: primary screen, population patch clamp on CHO cells stably expressing hERG.
human ether-à-go-go-related gene (hERG) potassium channel, sequence (Q12809 whole entry, looked up): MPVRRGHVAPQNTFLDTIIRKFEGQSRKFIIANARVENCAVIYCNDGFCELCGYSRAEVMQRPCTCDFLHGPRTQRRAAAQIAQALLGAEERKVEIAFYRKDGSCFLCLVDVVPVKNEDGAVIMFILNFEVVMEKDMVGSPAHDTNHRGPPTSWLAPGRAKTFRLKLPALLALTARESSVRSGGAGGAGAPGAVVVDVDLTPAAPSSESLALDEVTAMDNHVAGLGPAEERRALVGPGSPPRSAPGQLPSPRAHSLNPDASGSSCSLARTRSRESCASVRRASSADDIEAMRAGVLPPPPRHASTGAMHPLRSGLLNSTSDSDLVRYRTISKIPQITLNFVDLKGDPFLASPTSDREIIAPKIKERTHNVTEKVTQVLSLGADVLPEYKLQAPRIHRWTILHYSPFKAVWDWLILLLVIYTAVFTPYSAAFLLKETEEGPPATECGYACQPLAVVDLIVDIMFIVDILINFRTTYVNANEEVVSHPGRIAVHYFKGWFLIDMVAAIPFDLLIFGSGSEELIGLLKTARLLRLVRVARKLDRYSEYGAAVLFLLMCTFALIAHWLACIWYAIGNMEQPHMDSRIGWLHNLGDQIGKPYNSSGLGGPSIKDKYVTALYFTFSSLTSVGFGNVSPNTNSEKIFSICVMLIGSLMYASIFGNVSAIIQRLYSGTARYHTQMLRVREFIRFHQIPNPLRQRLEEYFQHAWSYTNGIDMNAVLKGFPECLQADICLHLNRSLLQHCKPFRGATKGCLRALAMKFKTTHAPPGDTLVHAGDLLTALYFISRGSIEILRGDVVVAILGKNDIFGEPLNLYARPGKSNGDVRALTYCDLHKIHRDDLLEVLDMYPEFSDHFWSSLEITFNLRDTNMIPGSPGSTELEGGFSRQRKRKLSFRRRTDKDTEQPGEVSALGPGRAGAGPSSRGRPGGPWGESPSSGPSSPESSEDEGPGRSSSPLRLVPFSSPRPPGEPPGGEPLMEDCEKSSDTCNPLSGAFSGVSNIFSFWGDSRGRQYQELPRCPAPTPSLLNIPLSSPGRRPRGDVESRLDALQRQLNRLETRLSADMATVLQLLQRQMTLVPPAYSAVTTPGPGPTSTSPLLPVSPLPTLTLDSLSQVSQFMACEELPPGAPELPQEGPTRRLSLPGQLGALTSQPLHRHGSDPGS
With `Cc1nc(NCc2cccnc2)c2c3c(sc2n1)CC(C)CC3` (centres unmarked), the “hERG current change (%, negative = inhibition) at 10uM” value is recorded as -25.1%. Take `Nc1ncnc2c1ncn2[C@H]1C[C@H](O)[C@@H](COP(=O)(O)O)O1`: the “hERG current change (%, negative = inhibition) at 10uM” value came to 12%. Turning to `CN1CCN(C2=C(Cl)C(=O)N(c3ccc(Cl)c(Cl)c3)C2=O)CC1`, the “hERG current change (%, negative = inhibition) at 10uM” value was 14.1%. Consider `COC(CNC(=O)c1ccc2c(c1)ncn2-c1ccc(F)c(F)c1)OC`, for which the “hERG current change (%, negative = inhibition) at 10uM” value was -8.37%. For `CCc1cccc2c(C#N)cn(CCOc3ccccc3OC)c12`, the “hERG current change (%, negative = inhibition) at 10uM” value amounted to 0.955%. Regarding `O=C(NCc1ccccn1)c1cccc(NS(=O)(=O)c2cccc(F)c2)c1`, the “hERG current change (%, negative = inhibition) at 10uM” value is recorded as -4.67%. The figure for `O=C(Nc1cccc([N+](=O)[O-])c1)C1C2CCCCC21` (centres unmarked) is 21%. The figure for `CCc1ccc(OC(=O)Cc2ccc(OC)c(S(=O)(=O)N3CCOCC3)c2)cc1` is -13.5%; for `O=C(COc1ccc(Cl)cc1Cl)NN1C(=O)C2C3C=CC(C3)C2C1=O` (centres unmarked) it is -0.38%; for `COc1ccccc1NC(=O)C1=C(C)NC(=O)NC1c1cc(C)cs1` (centres unmarked) it is -1.44%.

With `O=C1C(Cl)=C(N2CCCCCC2)C(=O)N1c1ccccc1`, the “hERG current change (%, negative = inhibition) at 10uM” value is recorded as -1.74%. On to `CC(=O)Oc1c(S(=O)(=O)c2ccc(C)cc2)c(C)nn1C(C)(C)C`, for which the “hERG current change (%, negative = inhibition) at 10uM” value is -7.78%.

As for `COc1ccc(C(=O)/C(=C\c2sccc2C)c2nc3ccccc3o2)cc1`, the “hERG current change (%, negative = inhibition) at 10uM” value is reported as 11.4%. The figure for `COc1cccc(OCC(=O)NC2CCCCC2)c1` is 1.37%; for `Cn1c(C(=O)NCc2cccnc2)cc2sc(Cl)cc21` it is -43.9%; for `COc1ccc(N(C(=O)CCl)C(C(=O)NCCc2ccccc2)c2cccs2)cc1Cl` (centres unmarked) it is -3.69%. The figure for `Cc1cc(C)cc(N(C(=O)c2sc(C)nc2C)C(C(=O)NCc2ccco2)c2ccccc2)c1` (centres unmarked) is 15.4%. Turning to `O=C(NC(Cc1c[nH]c2ccccc12)C(=O)OCC(=O)c1cccc2ccccc12)c1cccs1` (centres unmarked), the “hERG current change (%, negative = inhibition) at 10uM” value is listed as 0.359%. Regarding `COC(=O)c1ccc(NC(=O)c2cc(-c3ccccn3)nc3ccccc23)cc1`, the “hERG current change (%, negative = inhibition) at 10uM” value was 16.2%. For the compound `CN(C)c1ccc(-c2nc3n(n2)C(c2cccnc2)C2=C(CC(C)(C)CC2=O)N3)cc1` (centres unmarked), the “hERG current change (%, negative = inhibition) at 10uM” value was -10.2%. Consider `COc1ccc(NC(=O)c2cc(-c3ccco3)on2)cc1`, for which the “hERG current change (%, negative = inhibition) at 10uM” value came to 11.1%. For `Cc1ccc2nc3c(c(C(=O)OCC(=O)N(C)C4CCS(=O)(=O)C4)c2c1)CCCC3` (centres unmarked), the “hERG current change (%, negative = inhibition) at 10uM” value is on record as -19.6%. Turning to `CN1C(C(=O)Nc2ncccn2)=C(O)c2ccccc2S1(=O)=O`, the “hERG current change (%, negative = inhibition) at 10uM” value was found to be 8.31%. The figure for `CN(C)C(CNC(=O)c1cccnc1Sc1ccccc1)c1ccco1` (centres unmarked) is -0.564%. `CC1CCN(c2ccccc2NC(=O)c2ccc(C#N)cc2F)CC1`: the “hERG current change (%, negative = inhibition) at 10uM” value worked out at 5.07%.

For the compound `CCCCn1c(SCC(=O)Nc2cc(C)on2)nnc1-c1cccnc1`, the “hERG current change (%, negative = inhibition) at 10uM” value was found to be 4.64%. Take `O=C(CN1CCN(Cc2ccccc2)CC1)Nc1cccc(Br)c1`: the “hERG current change (%, negative = inhibition) at 10uM” value was -51.7%.

For the compound `Cc1ccc2c(c1)COc1c3ccc(C(=O)NCC4CC4)cc3nn1-2`, the “hERG current change (%, negative = inhibition) at 10uM” value was -6.56%.

Regarding `CCCc1nn(-c2cc(Cl)ccc2OC)c2c1C(=O)CCC2`, the “hERG current change (%, negative = inhibition) at 10uM” value is recorded as -7.96%.

As for `COC(=O)[C@@H](N)CS.Cl`, the “hERG current change (%, negative = inhibition) at 10uM” value was determined as 23.1%. Take `Nc1nnnn1/N=C/c1cc(Br)ccc1O`: the “hERG current change (%, negative = inhibition) at 10uM” value was 15.2%.

For the compound `C=CCN1C(=O)NC(=O)/C(=C/c2cccn2C)C1=O`, the “hERG current change (%, negative = inhibition) at 10uM” value is 0.367%. Turning to `O=C(c1ccc(F)c(S(=O)(=O)N2CCOCC2)c1)N(CCc1ccccc1)Cc1ccccc1`, the “hERG current change (%, negative = inhibition) at 10uM” value was -68.3%. The figure for `CC(=O)N1CCN(C(=O)c2ccc(S(=O)(=O)Nc3ccccc3F)cc2)CC1` is 6.9%.

Take `O=C1CCCc2oc3ccc(O)cc3c21`: the “hERG current change (%, negative = inhibition) at 10uM” value is on record as 6.83%. `O=C(Nc1nccs1)Oc1ccccc1`: the “hERG current change (%, negative = inhibition) at 10uM” value is given as -7.32%. For `CC(=O)Nc1ccc(NC(=O)CSc2nnc(-c3ccccc3)n2Cc2ccc3c(c2)OCO3)cc1`, the “hERG current change (%, negative = inhibition) at 10uM” value was -19.2%.

On to `Cc1ccc(C2N(C)c3ccccc3-c3nc4ccccc4n32)o1` (centres unmarked), for which the “hERG current change (%, negative = inhibition) at 10uM” value is -5.15%. With `CCOC1(OCC)N=C(N)C2(C#N)C(c3cccc(C)c3)C12C#N` (centres unmarked), the “hERG current change (%, negative = inhibition) at 10uM” value was determined as 11.8%.

`COc1ccc(C(=O)COC(=O)CCc2ccccc2)cc1`: the “hERG current change (%, negative = inhibition) at 10uM” value was -11.4%. Turning to `COc1ccc2cc(CCNC(=O)c3ccc(S(=O)(=O)N4CCOCC4)cc3)c(=O)[nH]c2c1`, the “hERG current change (%, negative = inhibition) at 10uM” value is -23.3%. The figure for `Cc1cc(C)cc(NC(=O)C2CCCN2/C=C/C(=O)C(F)(F)F)c1` (centres unmarked) is -12.1%; for `O=C(O)C(Nc1nc(C(F)(F)F)nc2ccccc12)c1ccccc1` (centres unmarked) it is 26.2%. `COC(=O)C1=C(c2cc3ccccc3s2)C[C@@H]2CC[C@H]1N2C(=O)NCc1ccccc1`: the “hERG current change (%, negative = inhibition) at 10uM” value is -20.9%. As for `O=C(O)CC(NC(=O)COc1ccc(Cl)cc1Cl)C(=O)O` (centres unmarked), the “hERG current change (%, negative = inhibition) at 10uM” value stood at 13.1%. In the case of `COc1ccccc1N(CC(=O)NCCSCc1ccccc1Cl)S(C)(=O)=O`, the “hERG current change (%, negative = inhibition) at 10uM” value is -3.74%. With `COc1ccc(/C=C2\N=C(C)N(c3ccc(C(=O)O)cc3)C2=O)cc1OC`, the “hERG current change (%, negative = inhibition) at 10uM” value was 13.6%. Consider `Cc1ccccc1CNS(=O)(=O)c1c(C(=O)N2CCCCC2)c(C)n(C)c1C`, for which the “hERG current change (%, negative = inhibition) at 10uM” value was -3.14%. For the compound `COc1ccc(-n2c(SCC(=O)Nc3ccc(Cl)cc3)nc(O)c(Cc3ccccc3)c2=O)cc1`, the “hERG current change (%, negative = inhibition) at 10uM” value stood at 10.7%. As to `CCNC(=O)N1c2ccccc2Sc2ccccc21`, the “hERG current change (%, negative = inhibition) at 10uM” value was 10.8%. `Cc1[nH]n(-c2cccc([N+](=O)[O-])c2)c(=O)c1-c1ccccc1`: the “hERG current change (%, negative = inhibition) at 10uM” value was determined as 15.8%. In the case of `COc1ccc(CCNC(=O)CN2C(=O)c3ccccc3S2(=O)=O)cc1OC`, the “hERG current change (%, negative = inhibition) at 10uM” value was -8.28%. Regarding `Cc1c(O)ccc2c(CC(=O)N[C@@H](Cc3ccc(O)cc3)C(=O)O)cc(=O)oc12`, the “hERG current change (%, negative = inhibition) at 10uM” value amounted to 9.14%. Regarding `Cc1nn(-c2ccccc2)c2c1C(c1ccc(F)cc1F)C(C#N)=C(N)O2` (centres unmarked), the “hERG current change (%, negative = inhibition) at 10uM” value is -9.42%. For `Clc1ccc(OCCSc2ncccn2)cc1`, the “hERG current change (%, negative = inhibition) at 10uM” value came to 5.46%. As to `CC(=O)N(C)c1nnc(-c2ccccn2)s1`, the “hERG current change (%, negative = inhibition) at 10uM” value was determined as 0.358%.

Source of the values: publication PMC4336329 (PLoS ONE, 2015).
